This note sets out measurements from the supplement of paper PMC3334620.

The full ranking holds about 33,000 sequences; the median of “E-score (-0.5 to 0.5)” is about -0.011, and the highest 2% start at about 0.28. Some of the results follow.

In this experiment the target is T1, Gcr1 (UniProt P07261).
T1 sequence: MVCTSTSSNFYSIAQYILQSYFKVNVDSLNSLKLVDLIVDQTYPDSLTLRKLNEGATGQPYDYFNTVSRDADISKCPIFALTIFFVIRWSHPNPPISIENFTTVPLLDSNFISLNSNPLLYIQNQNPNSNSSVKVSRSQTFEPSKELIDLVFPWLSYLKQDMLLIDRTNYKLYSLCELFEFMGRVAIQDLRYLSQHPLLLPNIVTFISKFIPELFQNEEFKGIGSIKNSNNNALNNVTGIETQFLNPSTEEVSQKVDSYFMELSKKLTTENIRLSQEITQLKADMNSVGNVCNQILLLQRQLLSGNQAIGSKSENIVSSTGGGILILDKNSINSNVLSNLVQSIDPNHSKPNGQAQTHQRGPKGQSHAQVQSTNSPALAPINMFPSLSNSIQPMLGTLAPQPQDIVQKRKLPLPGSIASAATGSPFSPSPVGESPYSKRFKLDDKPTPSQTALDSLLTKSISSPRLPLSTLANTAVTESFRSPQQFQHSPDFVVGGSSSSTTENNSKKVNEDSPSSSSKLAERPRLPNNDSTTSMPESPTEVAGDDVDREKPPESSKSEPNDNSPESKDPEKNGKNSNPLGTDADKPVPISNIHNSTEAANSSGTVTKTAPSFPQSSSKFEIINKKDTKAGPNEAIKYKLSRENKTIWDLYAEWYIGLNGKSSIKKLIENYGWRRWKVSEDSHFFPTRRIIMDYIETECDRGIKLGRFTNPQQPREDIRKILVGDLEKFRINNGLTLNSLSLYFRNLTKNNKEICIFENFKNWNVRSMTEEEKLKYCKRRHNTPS
As to the kind of experiment: PBM E-score (8-mer binding enrichment) (E-score (-0.5 to 0.5)); higher = stronger / more preferred TF binding; most listed sequences are background and not binding sites. The settings on record: protein concentration: 100 nM; construct: GST-full length. On the procedure: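 Universal 'all 10-mer' protein binding microarrays (Agilent AMADID 015681) probed with GST-tagged S. cerevisiae TFs (full-length or DBD) made by in vitro transcription/translation (PURExpress), about 100-200 nM. Bound TF was detected with fluorescent anti-GST. Each ungapped 8-mer (which stands for itself and its reverse complement) is scored by the PBM enrichment score (E-score), a modified Wilcoxon-Mann-Whitney statistic from -0.5 to +0.5, computed with the Universal PBM Analysis Suite. Scale: above 0.35 generally sequence-specific binding.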
On to GAAAGTTA, for which the “PBM E-score” value was -0.181.
In the case of ACGTTGTC it was -0.0253; in that of CGAGACAG, -0.0925.
In the case of ATGAGTAG it was 0.103; in that of ACATCAGT, -0.0797; in that of ATGCGGGC, 0.19.
As for CGGTGTTA, the “PBM E-score” value was determined as 0.0269.
In the case of CAAGAAAC, the “PBM E-score” value was determined as 0.0293.
On to CCCCCCGA, for which the “PBM E-score” value was -0.252.
In the case of ATGGTCCG, the “PBM E-score” value was found to be 0.0284.
With GTCCTGCA the figure was 0.0582.
With ACATTTCG the figure was 0.00397; with CGTACAAC, -0.152; with ATGCACGC, -0.072.
In the case of TAGGAGGA it was -0.136; in that of CCCTGGCA, -0.00029; in that of ACCTCAAA, 0.0958.
With CGGGAAGC, the “PBM E-score” value was found to be 0.317.
For GGAACTAC, the “PBM E-score” value is -0.0927.
In the case of GAAAAACA it was 0.112; in that of CACCCGCC, -0.0173; in that of CAGTGTAG, 0.0981.
In the case of ATAACCTC it was -0.0967; in that of ATAGTATG, -0.0207; in that of AGGGTGGA, -0.289.
In the case of ACTTACGA, the “PBM E-score” value was 0.0669.
As for CCCCCGCC, the “PBM E-score” value stood at 0.0264.
As for GACACAGC, the “PBM E-score” value was -0.132.
With GACGAGTA the figure was -0.0843; with AGAGTTAT, -0.0127.
With CTTTTAGA, the “PBM E-score” value stood at 0.122.
Turning to CCAAGTAA, the “PBM E-score” value worked out at 0.0134.
With GTGCCCAC the figure was 0.146; with AACACCCC, -0.013; with GCTTTGCA, -0.15.
With CTGGCGCA the figure was -0.119; with CTTACGGC, -0.137.
With CCGTCCTC, the “PBM E-score” value is -0.16.
Turning to AACCTTTA, the “PBM E-score” value was -0.0342.
Turning to AAACCGGA, the “PBM E-score” value turned out to be 0.194.
For the sequence TCCAGGCA, the “PBM E-score” value was 0.0543.
For AGAACGAG, the “PBM E-score” value is -0.167.
With CCATCATC the figure was -0.154.
Take AACGCTAG: the “PBM E-score” value was -0.224.
In the case of ACGTCTCT it was 0.0766; in that of CGATGTCA, -0.017; in that of ACCGGGTA, 0.0831.
In the case of AAATATCT it was -0.073; in that of CAGCATGA, -0.133.
With AAGACACA the figure was 0.0703.
With GTCCCGAA, the “PBM E-score” value was determined as 0.024.
With CGTCCAAC the figure was 0.176; with CTAGGCTC, -0.0702.
For the sequence ACCGCGTG, the “PBM E-score” value was -0.0875.
In the case of ATATCAAC, the “PBM E-score” value is 0.0466.
With GCTCACAA the figure was -0.0857; with ATATATAT, 0.0382; with CTTTTCTC, -0.0229.
In the case of ACTCTAGC it was 0.0304; in that of CTGTGTCC, -0.172; in that of ACCGTCTA, 0.12.
With AACACGCT the figure was -0.0337; with AATCATAC, 0.00576.
On to GAGCACGC, for which the “PBM E-score” value was -0.0146.
In the case of AAAGTCGA it was -0.174.
Take CGCGCAGC: the “PBM E-score” value amounted to 0.202.
With CTCTGATA the figure was -0.127; with CCTATTCG, 0.0671.
With TAGCCCTA the figure was -0.0566.
As for ACTCGGTA, the “PBM E-score” value is -0.113.
Take AAGATCAG: the “PBM E-score” value stood at 0.129.
With CATACTTA the figure was 0.0988.
For GGCTCTCA, the “PBM E-score” value was -0.0408.
With CCCTCCGA the figure was -0.0812.
Take AGTGATTA: the “PBM E-score” value is 0.195.
Regarding AATCTGAC, the “PBM E-score” value was -0.129.
Take TAATGAGA: the “PBM E-score” value is -0.128.
In the case of CCTGGTCC it was -0.142.
For TAGGGCGA, the “PBM E-score” value was -0.0267.
In the case of CAAGTCTA it was 0.0792; in that of ATCCCCAA, 0.0543.
Consider ATAGAAAT, for which the “PBM E-score” value worked out at 0.0208.
With CGACTATC the figure was -0.222; with GGTTGCAC, 0.00488; with GAGCCTCA, -0.0479.
Take CTAAGGAG: the “PBM E-score” value was 0.171.
